Four molecules from publication PMC12402098, “YTHDF3 recognizes DNA N6-methyladenine and recruits ALKBH1 for 6mA removal from genomic DNA” (The EMBO Journal, 2025) can be followed below.

These are yes or no findings as the source states them, for the method shown. For some of these results: Binding seen in cells or lysates may run through a third protein. Some entries that bind do so weakly or less than the wild type. Where a sequence is shown, tags or fusion partners need not be part of it.

For test [1], the target named is T1, ALKBH1-Flag (UniProt Q13686).
T1 sequence: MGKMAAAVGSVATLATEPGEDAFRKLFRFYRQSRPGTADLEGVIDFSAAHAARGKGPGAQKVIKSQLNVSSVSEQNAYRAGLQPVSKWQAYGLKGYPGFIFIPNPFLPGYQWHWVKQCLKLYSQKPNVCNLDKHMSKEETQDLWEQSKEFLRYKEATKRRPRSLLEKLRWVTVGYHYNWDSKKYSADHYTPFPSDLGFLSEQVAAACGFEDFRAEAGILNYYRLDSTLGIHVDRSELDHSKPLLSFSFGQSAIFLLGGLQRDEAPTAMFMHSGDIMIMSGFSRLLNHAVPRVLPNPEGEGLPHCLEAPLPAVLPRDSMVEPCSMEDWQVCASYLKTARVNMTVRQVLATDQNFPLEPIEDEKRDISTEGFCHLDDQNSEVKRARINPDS
The test can be described thus: co-IP; anti-FLAG or anti-HA antibodies and protein A/G agarose beads; transfected cells (HeLa in Fig. 4A); western blot. (In general: In western blotting, separated proteins are transferred to a membrane and probed.)

In test [2] the target is T1, ALKBH1-Flag. The test can be described thus: co-IP; as Fig. 4A but in the presence of DNase treatment of the complexes; HeLa cells transfected with YTHDF3-HA or ALKBH1-Flag; western blot.
The target of the next test is T2, YTHDF3-Flag (UniProt Q7Z739).
T2 sequence: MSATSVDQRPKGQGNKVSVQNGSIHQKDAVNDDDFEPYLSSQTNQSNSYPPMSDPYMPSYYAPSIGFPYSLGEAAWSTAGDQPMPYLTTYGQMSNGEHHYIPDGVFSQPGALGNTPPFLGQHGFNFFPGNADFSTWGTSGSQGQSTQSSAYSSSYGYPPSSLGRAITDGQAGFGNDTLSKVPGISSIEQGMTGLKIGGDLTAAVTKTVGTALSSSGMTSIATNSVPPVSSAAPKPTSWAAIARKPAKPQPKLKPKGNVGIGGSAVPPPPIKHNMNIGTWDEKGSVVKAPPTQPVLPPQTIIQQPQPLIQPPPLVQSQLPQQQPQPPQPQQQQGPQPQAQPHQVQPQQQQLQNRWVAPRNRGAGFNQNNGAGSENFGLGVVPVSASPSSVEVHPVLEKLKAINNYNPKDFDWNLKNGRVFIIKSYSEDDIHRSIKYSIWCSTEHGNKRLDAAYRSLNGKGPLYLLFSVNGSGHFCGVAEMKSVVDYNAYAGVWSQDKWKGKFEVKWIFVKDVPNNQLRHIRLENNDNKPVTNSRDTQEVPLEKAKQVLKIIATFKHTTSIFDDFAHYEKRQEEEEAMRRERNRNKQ
The test can be described thus: co-IP; anti-FLAG or anti-HA antibodies and protein A/G agarose beads; transfected cells (HeLa in Fig. 4A); western blot.

Test [3] addresses T3, YTHDF3-HA (UniProt Q7Z739).
T3 sequence: T2 sequence
The test is described as above.

For test [4], the target named is T3, YTHDF3-HA. The test can be described thus: co-IP; as Fig. 4A but in the presence of DNase treatment of the complexes; HeLa cells transfected with YTHDF3-HA or ALKBH1-Flag; western blot.
For a further test, the target named is T4, YTHDF3-His (UniProt Q7Z739 1-585).
T4 construct: YTHDF3 inserted into pET 26b vector; pET26b would give a C-terminal His tag (surmise); also called recombinant YTHDF3; wild-type YTHDF3; source: E. coli BL21 (DE3), purified (His-tag protein purification kit); also coexpressed with ALKBH1 in E. coli, in lysate
T4 sequence (looked up): T2 sequence
Kind of test: co-purification of coexpressed proteins on a His-tag resin; ALKBH1 and YTHDF3-His coexpressed in E. coli BL21 (DE3); complex purified from the supernatant with a His-tag protein purification kit.

B1: YTHDF3 (endogenous) (protein, UniProt Q7Z739 1-585)
chain: T2 sequence
For the molecule B1, the binding result in the test with ALKBH1-Flag [1] and with ALKBH1-Flag [2] was “binds” throughout.

B2: YTHDF1 (protein, UniProt Q9BYJ9 1-559)
chain: MSATSVDTQRTKGQDNKVQNGSLHQKDTVHDNDFEPYLTGQSNQSNSYPSMSDPYLSSYYPPSIGFPYSLNEAPWSTAGDPPIPYLTTYGQLSNGDHHFMHDAVFGQPGGLGNNIYQHRFNFFPENPAFSAWGTSGSQGQQTQSSAYGSSYTYPPSSLGGTVVDGQPGFHSDTLSKAPGMNSLEQGMVGLKIGDVSSSAVKTVGSVVSSVALTGVLSGNGGTNVNMPVSKPTSWAAIASKPAKPQPKMKTKSGPVMGGGLPPPPIKHNMDIGTWDNKGPVPKAPVPQQAPSPQAAPQPQQVAQPLPAQPPALAQPQYQSPQQPPQTRWVAPRNRNAAFGQSGGAGSDSNSPGNVQPNSAPSVESHPVLEKLKAAHSYNPKEFEWNLKSGRVFIIKSYSEDDIHRSIKYSIWCSTEHGNKRLDSAFRCMSSKGPVYLLFSVNGSGHFCGVAEMKSPVDYGTSAGVWSQDKWKGKFDVQWIFVKDVPNNQLRHIRLENNDNKPVTNSRDTQEVPLEKAKQVLKIISSYKHTTSIFDDFAHYEKRQEEEEVVRKERQSRNKQ
On to B2, for which, in the test with ALKBH1-Flag [1], the binding entry is “no binding”.

B3: ALKBH1 (endogenous) (enzyme, UniProt Q13686 1-389)
chain: T1 sequence
On to B3, for which the binding entry with YTHDF3-Flag, in the test with YTHDF3-HA [3] and with YTHDF3-HA [4] was “binds” each time.

B4: ALKBH1 (untagged, coexpressed with YTHDF3-His) (enzyme, UniProt Q13686 1-389)
chain: T1 sequence
Regarding B4, in the test with YTHDF3-His, the binding result is listed as “binds”.
